Laboratory results reported in the RNAGym collection of RNA variant scans (doi:10.7554/elife.90254).
The source gives no read counts; variants with many changes may rest on few reads.

B1: LINE1-mini (parent)
chain: GGCAGAGCUCAACACAGCGUGGCAAAGUGGCUGUGGCUAGACUGCC

Variants of: B1
Assay: self-cleavage, relative activity (ratio to wild type); higher = more cleavage; in vitro, sequencing; the parent is a self-cleaving ribozyme

Row | Variant | self-cleavage
1 | GGCCGAGCUCAACACAGUGUGGCAAAGGGGCUGUGACUAGACUGCC [A4C C18U U28G G36A] | 0.05
2 | GGCCCACCUCAACACAGCGUGGCAGUGUGGCUGUGGCUAGACUGCC [A4C G5C G7C A25G A26U] | 0.1
3 | GGCCUAGGUCAACACAGCGUGGGAAAGUGGCUGUGGUUAGACUGCC [A4C G5U C8G C23G C37U] | 0.32
4 | GGCCGAGCUCAACACAGCGUGGGAAGGUGGCUGUGGCUAGACAGCA [A4C C23G A26G U43A C46A] | 0.18
5 | GGCCAAGCUCAGCACAGCGUGGCAAAGUAGCUGUGGCUAGACUGCC [A4C G5A A12G G29A] | 0.18
6 | GGCCGAGCUCAACACAGCGUGGCAAAGUGGGUUCGUCUAGACUGCC [A4C C31G G33U U34C G36U] | 0.07
7 | GGCCGAGCUCAACACAGCGUGGAAAAGUGGCUGUGGCUAGACUGCG [A4C C23A C46G] | 0.11
8 | GGCCGAGCUCAACACAGCGUGGAAAAGUGGCUGUGGCUAGACUGCU [A4C C23A C46U] | 0.01
9 | GGCCUCGCUCAACACAGCGUGGCAAAGUGGCUGUGGCUAGACUGCC [A4C G5U A6C] | 0.01
10 | GGCCGAGCUCAACACAGCGUGGAAAAGUUGCCGUGGCUAGACUGCC [A4C C23A G29U U32C] | 0.13
11 | GGCCGAGCUCAACACAGCGUGGGAAAGUGGCUGUGGCUAGAAUGCC [A4C C23G C42A] | 0.07
12 | GGCCGAACUCAACAAAGCGUGGCAAAGUGGCCGUGGCUAGACUGCC [A4C G7A C15A U32C] | 0.15
13 | GGCCGAGCUCAAGACAGCGUGGCAAAGUAGCUUUGGCUAGACUGCC [A4C C13G G29A G33U] | 0.22
14 | GGCCGAGCUCAACAUAGAGUGGCAAAGUGGCUAUGGCUAGACUGCC [A4C C15U C18A G33A] | 0.03
15 | GGCCUACCUCAACACAGCGUGGCAAAGUGGCUGUGGCUAGAGUGCC [A4C G5U G7C C42G] | 0.6
16 | GGCCGAGCUCAACAAAGCGUGGCAAAGUGGCUGUGGUUAGACUGCC [A4C C15A C37U] | 0.13
17 | GGCCGAGCUCAACACAGCGUGGUACAGUGGCUGUGGCUAGACUGCU [A4C C23U A25C C46U] | 0.1
18 | GGCCGAGCUCAACAAACCGUGGCAAAGUGGCUGUAGCUAUACUGCC [A4C C15A G17C G35A G40U] | 0.08
19 | GGCCGAGCUCAAUACAGCGUGGGAAAGGGGAUGUGGCUAGACUGCC [A4C C13U C23G U28G C31A] | 0.04

Row | Variant | self-cleavage
20 | GGCCGAGCUCAACACAGAGUGGCUAAGUGGCUGUGGCUAGACCAUC [A4C C18A A24U U43C G44A C45U] | 0.01
21 | GGCCGAGCUCAACACAGCGUGGUAAAGUGUCUCUGGCUAGACUUCA [A4C C23U G30U G33C G44U C46A] | 0.08
22 | GGCCACGCUCAACACAGCGUUGCAAAGUGGCAGUAGCUAGACUGAC [A4C G5A A6C G21U U32A G35A C45A] | 0.02
23 | GGCCGAGCUCAACAAAGCGUAGCAAAGUGGCUGUAGUUUGACUGCC [A4C C15A G21A G35A C37U A39U] | 0.5
24 | GGCCGAGCUCAACACAGAGUGUCAAAGUGGCUGUUGCUAGAUUGCC [A4C C18A G22U G35U C42U] | 0.03
25 | GGCCAAGCUCAACACAGCGUGGCAAAGUGGCUGUGGAUAGACUGCC [A4C G5A C37A] | 0.17
26 | GGCCGAGCUCAACAGAGCGUCGCAAAGUGGCUGUGGCUAGACUGCC [A4C C15G G21C] | 0.02
27 | GGCCGAACUCAACACAGCGUGGCAAAGUGGUUGUGGCGAGACUGCC [A4C G7A C31U U38G] | 0.08
28 | GGCCGAGCUCAACACAGCGUGGCAAAGUGGCUGUGGAUAGACUGCA [A4C C37A C46A] | 0.05
29 | GGCCGAGCUCAAGACAGCGUGGCAAAGUGGCUGUGGCUACACUGCC [A4C C13G G40C] | 0.05
30 | GGCCAAGCUCAACAAAGCCUGGCAAAGUGGCUGUGGCUACACUGCA [A4C G5A C15A G19C G40C C46A] | 0.19
31 | GGCCGAGCUCAACACAGGUUGGCAAAGUGGCUGUGGCUAGACUGCC [A4C C18G G19U] | 0.02
32 | GGCCGAGCUCAAGACAGCGUUGCAAAGUGGCUGUGGCUAGACUGCC [A4C C13G G21U] | 0.09
33 | GGCCAAGCUCAACACAGCGUGGCAAUGUGGCUGUGGCUCGACUGCC [A4C G5A A26U A39C] | 0.24
34 | GGCCCAGCUCAACACAGCGUGGCAAAGUGGCUGUGGCUAGAUGGCC [A4C G5C C42U U43G] | 0.06
35 | GGCCGAGCUCAAUACAGCGUGGCAAAGUGGCAGUGGCUAGACUGCC [A4C C13U U32A] | 0.05
36 | GGCCUAGCACAACAUAGCGUGGCAAAGUGGCUGUGGCUAGAUUGCC [A4C G5U U9A C15U C42U] | 0.69
37 | GGCCAAGCUCACCAAAGCGUGGUAAAGUGGCUUUGGCUAGACUGCC [A4C G5A A12C C15A C23U G33U] | 0.03
38 | GGCCGAGCUCAACACAGCGUGGUUAAGUGGCUGUGGCUAGACUGAC [A4C C23U A24U C45A] | 0.06

Row | Variant | self-cleavage
39 | GGCCGAGCUCAACACAGCGUGGAAAAGUGGCUGUGUCUAUACUGCA [A4C C23A G36U G40U C46A] | 0.05
40 | GGCCGAGCUCAACAAAGCGUGGCAAAGUGGAUGUGGCUAGACUGCC [A4C C15A C31A] | 0.04
41 | GGCCAAGCUAAACACAGCGUGGCAAAGUGGCUGUGGCUAGACUGCC [A4C G5A C10A] | 0
42 | GGCCGAACUCAAUACAGCGUGGCAAAGUGGCUAUGGCUAGACUGCC [A4C G7A C13U G33A] | 0.5
43 | GGCCUAGCUCAACACAGCGUGGCAAAGUGUCUGUGGCUACACAGCC [A4C G5U G30U G40C U43A] | 0.06
44 | GGCCGAGCUCAACACAGCGUGGUAAAGUAGCUGUGGCUAGACUGCC [A4C C23U G29A] | 0.15
45 | GGCCGAGCUCAAUACUGCGUGGCAAAGUGGCUGUGGCUAGACUGCC [A4C C13U A16U] | 0.12
46 | GGCCUAUCUCAACACAGCGUGGAAAAGCGGCUGUGGGUAGACUGCC [A4C G5U G7U C23A U28C C37G] | 0.02
47 | GGCCGAGCUCAACACAGCGUGGUAAAUUGGCUGUGGCUAGACUCCC [A4C C23U G27U G44C] | 0.08
48 | GGCCAAGCACAACAGAGCUUGGCAAAGUGGCUGUGGCUAGACUGCC [A4C G5A U9A C15G G19U] | 0.06
49 | GGCCGAGCUCAACACAGCGUGGCAAAGUGGAUGGUGCUAGACUGCC [A4C C31A U34G G35U] | 0.01
50 | GGCCGAACUCAACAGAGCGUGGCAAAUUGGCUUUGGCUAGACUGCC [A4C G7A C15G G27U G33U] | 0.02
51 | GGCCGAGCUCAACACAGCGUGGAAAAGUGGCUGCGGCUAGACUGCC [A4C C23A U34C] | 0.04
52 | GGCCGAACUCAACACAGCGUGGUAAAAUGGCUGUGGCUAGACUGCC [A4C G7A C23U G27A] | 0.13
53 | GGCCGAGCUCAACACAGGGUAGCAAAGUGGCUGUGGCUAGACUGCC [A4C C18G G21A] | 0.03
54 | GGCCCAGGUCAACACAGCGUGGCCAAGUGGCUGUGGCUAGACUGCC [A4C G5C C8G A24C] | 0.09
55 | GGCCUAGCUCAACACAGCGUGGCAAAGUGGCUGUGGCUAGACUACC [A4C G5U G44A] | 0.06
56 | GGCCAUGCUCAACACAGCAUGGCAAAGGGGCUGUGGCUAGACUGCU [A4C G5A A6U G19A U28G C46U] | 0.15
